The results in this text go back to PMC7819943, “Rice protein-binding microarrays: a tool to detect cis-acting elements near promoter regions in rice”.

The list shows a part of the results.

The target of this assay is T1, OsWOX13 (Oryza sativa, UniProt Q5QMM3 1-267).
T1 sequence: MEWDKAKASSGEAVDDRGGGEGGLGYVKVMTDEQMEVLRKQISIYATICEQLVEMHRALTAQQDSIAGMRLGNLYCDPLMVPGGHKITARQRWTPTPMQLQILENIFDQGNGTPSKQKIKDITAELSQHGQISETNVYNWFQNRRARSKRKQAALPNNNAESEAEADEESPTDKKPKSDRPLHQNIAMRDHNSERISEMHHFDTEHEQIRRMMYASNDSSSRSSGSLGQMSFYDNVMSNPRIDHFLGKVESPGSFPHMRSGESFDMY
Description: protein-binding microarray (RPBM); PBS, 2% BSA, 51.3 ng/ul salmon testes DNA, 50 uM zinc acetate, 200 nM TF, 25 C, 1 h; high values mean tight binding. As to conditions: protein: recombinant; tags: N-terminal polyhistidine and DsRed monomer fusion (pET32a); label: CyDye5-dUTP incorporated in the synthesized complementary strand; 3' TTTTT single-stranded linker to array surface; dsDNA, one strand shown. Put shortly: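 An Axon 4000B scanner gave the binding signal as per-feature fluorescence intensity in arbitrary units. This followed washing of a custom Agilent array that had been incubated for 1 h at 25 °C with 200 nM protein in PBS, 2% BSA, salmon testes DNA and 50 µM zinc acetate. The proteins were transcription factors fused at the N-terminus to polyhistidine and DsRed, expressed in E. coli BL21-CodonPlus and purified on Ni–NTA.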
Take “ATAATTGAGATGGAAAGTGTAATAACGAGTGATGCATAAGCGGAGTCACCTAGTGCAG”: the binding signal is 19700 fluorescence intensity (a.u.).

“CCAAATTTGTGAATAAGTATAAACTACAGATACTGCTCGCCGGAGTCACCTAGTGCAG”: the binding signal was 6180 fluorescence intensity (a.u.).

For “AATTAACAATTTACCAAATTATTAGTTATCAACACTAATTCGGAGTCACCTAGTGCAG”, the binding signal is 11300 fluorescence intensity (a.u.). The value for “AATTAATTATTCGAGCAGTTCAAATGGATCAGAGAATAATCGGAGTCACCTAGTGCAG” was 7360 fluorescence intensity (a.u.); that for “TATGAAATTTAGAGACTTAAATTGAACTTCACAGACATTGCGGAGTCACCTAGTGCAG” was 13700 fluorescence intensity (a.u.); that for “CCTAATTTAGGCCCCAAACTAAACCTGCCCCAAATCAAAGCGGAGTCACCTAGTGCAG” was 7500 fluorescence intensity (a.u.). As for “CTAGTAGTACTAATTGTGATTATATATGGAGTATTTAATTCGGAGTCACCTAGTGCAG”, the binding signal is 5470 fluorescence intensity (a.u.). The value for “TTCAGTTCATGTCAGATTAACAAATTAACACCTCAAGCCCCGGAGTCACCTAGTGCAG” was 4280 fluorescence intensity (a.u.); that for “ACTGTCACTAATAAATCATTGTTTATTACTTAATCACACGCGGAGTCACCTAGTGCAG” was 5430 fluorescence intensity (a.u.); that for “TGCAGGTTGATTATGTGTCAACCAATGATCAAGTAGCTGACGGAGTCACCTAGTGCAG” was 9240 fluorescence intensity (a.u.). The value for “CAAGTCAATCTATAAGTTATTAGTAGTTGCCAGTTTGCCACGGAGTCACCTAGTGCAG” was 7250 fluorescence intensity (a.u.); that for “CAAAATTGACAACAAGCAAACATCTCATCATCACCAGTACCGGAGTCACCTAGTGCAG” was 30600 fluorescence intensity (a.u.). With “CATGATTGAAGATTTGAAGAGCACATGAGAATTATACTTCCGGAGTCACCTAGTGCAG” the figure was 41700 fluorescence intensity (a.u.); with “TCTAAATTTTAATATGTAATCATACCACGGAGGCAAAGCTCGGAGTCACCTAGTGCAG”, 21900 fluorescence intensity (a.u.); with “AGGTTGACATGAAGATGAAATAAACAAATAGCATGTTGATCGGAGTCACCTAGTGCAG”, 4210 fluorescence intensity (a.u.).

“TTATCCAATTATATCTTTTAGTGTGTGTGTGTGTATATATCGGAGTCACCTAGTGCAG”: the binding signal was 5750 fluorescence intensity (a.u.). With “ATAGTATATGGTTGGGCAATTGATTGACCAACTAACAGTTCGGAGTCACCTAGTGCAG” the figure was 10900 fluorescence intensity (a.u.).

Take “ATTAAAGCAGGAAATTTTGATTGAAACACTATGCTAGTTCCGGAGTCACCTAGTGCAG”: the binding signal was 25000 fluorescence intensity (a.u.).

Take “GGTGTAATTAGTATGGTGTTTTAATCGATACATGTATTGCCGGAGTCACCTAGTGCAG”: the binding signal is 17200 fluorescence intensity (a.u.). With “TTACCTAATTAGTGTGTAATTTACACCCGTCTATTATTATCGGAGTCACCTAGTGCAG” the figure was 36200 fluorescence intensity (a.u.). With “CTTAATAGAAGTGGTGAGTAGGAGTAATAAACAATGGAGTCGGAGTCACCTAGTGCAG” the figure was 5750 fluorescence intensity (a.u.); with “GATCTCAACTAGAACATGATTAGGAACCCAAGCAGCAAGCCGGAGTCACCTAGTGCAG”, 4480 fluorescence intensity (a.u.).

On to “AATAATTGAATATATTTTCATAATAAATGTGTGTTGAGTTCGGAGTCACCTAGTGCAG”, for which the binding signal is 38400 fluorescence intensity (a.u.). With “CTGCAATTGACATCTTGATCGGTTGTCCCTCGAATGGGGACGGAGTCACCTAGTGCAG” the figure was 25200 fluorescence intensity (a.u.); with “CCGTCAAATAGTTATTTAATTTATGGCTACTAATTACTATCGGAGTCACCTAGTGCAG”, 11600 fluorescence intensity (a.u.); with “CATGCTTGATGTGTATTATCAATTTCAGGTCTTACAGGAACGGAGTCACCTAGTGCAG”, 3840 fluorescence intensity (a.u.). For “ATTCTAATCCAAATTATCAAGATAATAATCATAACTTTAGCGGAGTCACCTAGTGCAG”, the binding signal was 10700 fluorescence intensity (a.u.). The value for “AAACTAATTTTCTGTGACACTTCCAAGTGCATACCGGAGTCGGAGTCACCTAGTGCAG” was 10300 fluorescence intensity (a.u.); that for “TGTAACTATAATGTAACTAGGGTGTAACTGGAGTATAACTCGGAGTCACCTAGTGCAG” was 6300 fluorescence intensity (a.u.).

In the case of “ATTAAATTAAGAAGATGTATTAACATATGATATATCGCTTCGGAGTCACCTAGTGCAG”, the binding signal is 23500 fluorescence intensity (a.u.). With “TCTAAATTCATAGAATTATGACGTGTCACATCTACGTACGCGGAGTCACCTAGTGCAG” the figure was 3610 fluorescence intensity (a.u.).

Consider “CGGGGATTGGCCCGGCGAGGCTTTCACGGTGGGGACTGGGCGGAGTCACCTAGTGCAG”, for which the binding signal was 6760 fluorescence intensity (a.u.). With “ATTTAGATAGATGTATATCCAAATTTATAATAGAAGAATGCGGAGTCACCTAGTGCAG” the figure was 7740 fluorescence intensity (a.u.); with “TTGTGAAGCTTAATTAGGTTGATCGATTGGTCAGAACTCGCGGAGTCACCTAGTGCAG”, 7940 fluorescence intensity (a.u.). The value for “ATAAAACAGACGATCAAAATTGAAGAAAGAAACTCATGGCCGGAGTCACCTAGTGCAG” was 6440 fluorescence intensity (a.u.); that for “TGTAATTTTAGACTTAACAATGTGCACTTTTAGTTTTAGACGGAGTCACCTAGTGCAG” was 8310 fluorescence intensity (a.u.). The value for “CTCAATTAATCATGCGCTAATAGCTCACATCGTTTTACGTCGGAGTCACCTAGTGCAG” was 11100 fluorescence intensity (a.u.); that for “TGTGCCTTAATTGACAAACCAGGCAAGCAGGCTTTATCTACGGAGTCACCTAGTGCAG” was 30500 fluorescence intensity (a.u.); that for “TTTGTTGTGATTTATTTTGTCATCAAAGAGACCCTAACCTCGGAGTCACCTAGTGCAG” was 9740 fluorescence intensity (a.u.).

In the case of “AGGGATGGGATGACATAATAATTTGCATATGTCACACGACCGGAGTCACCTAGTGCAG”, the binding signal is 5380 fluorescence intensity (a.u.). The value for “CCGTAATGGATCGAGGATGTCCGTCTCCTTAACCCACTTCCGGAGTCACCTAGTGCAG” was 3300 fluorescence intensity (a.u.); that for “TGTTGAAGATGATTGGATGAACATATATGTGCAAATTTGCCGGAGTCACCTAGTGCAG” was 24300 fluorescence intensity (a.u.).
